Hit rate of the full screen: of about 110,000 compounds, about 230 (0.21%) showed an effect of 50% or more. This is one part of the list.
Each compound was assayed against DPAP1 (Plasmodium falciparum, UniProt Q8IIJ9) (assay: primary screen, percent inhibition; read by cleavage of a fluorogenic dipeptide substrate; higher = more effect of the substance).
Design: species or system P. falciparum D10 trophozoite lysates; single well
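Further: 30 min substrate incubation versus DMSO and 10 µM JCP410 controls.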

Chain of DPAP1 (Q8IIJ9 whole entry, looked up): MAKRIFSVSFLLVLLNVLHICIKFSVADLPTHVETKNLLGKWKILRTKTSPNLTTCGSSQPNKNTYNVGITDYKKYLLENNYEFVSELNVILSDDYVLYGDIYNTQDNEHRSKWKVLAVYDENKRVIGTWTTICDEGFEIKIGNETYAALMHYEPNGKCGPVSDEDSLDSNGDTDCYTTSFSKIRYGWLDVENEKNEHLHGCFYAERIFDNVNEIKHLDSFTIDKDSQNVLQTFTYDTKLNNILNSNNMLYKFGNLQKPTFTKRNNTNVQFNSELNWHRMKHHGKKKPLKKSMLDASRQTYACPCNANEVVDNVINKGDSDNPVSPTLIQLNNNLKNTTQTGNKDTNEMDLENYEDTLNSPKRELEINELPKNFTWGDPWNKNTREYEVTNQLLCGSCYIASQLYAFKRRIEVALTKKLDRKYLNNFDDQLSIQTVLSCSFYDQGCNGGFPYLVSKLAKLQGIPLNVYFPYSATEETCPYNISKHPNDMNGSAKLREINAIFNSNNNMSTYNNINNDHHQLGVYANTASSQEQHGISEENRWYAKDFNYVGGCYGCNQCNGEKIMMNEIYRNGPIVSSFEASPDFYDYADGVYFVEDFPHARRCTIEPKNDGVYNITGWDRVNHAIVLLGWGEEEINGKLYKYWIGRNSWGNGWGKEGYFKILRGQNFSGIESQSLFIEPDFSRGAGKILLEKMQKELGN

Row | Structure (SMILES) | % Inhibition @ 10 uM [%]
1 | OC(CN1CCOCC1)Cn1cnc2ccccc21 (stereo not shown) | 2.77
2 | CC(=O)c1c(O)c2cccc3c2n(c1=O)CC3 | 0.5
3 | CC(C)CN(CC(C)C)C(=O)CN(C)S(=O)(=O)c1cccc2nsnc12 | 3.63
4 | CCc1ccc(N(CC(=O)Nc2ccccc2C(C)C)S(C)(=O)=O)cc1 | 6.24
5 | Cc1ccc(S(=O)(=O)NCCC(=O)NCc2ccccc2)cc1 | -1.99
6 | COc1ccc(-c2cn3nc(N4CCC(C(=O)N5CCc6ccccc6C5)CC4)sc3n2)cc1 | -2.77
7 | CC1CCN(S(=O)(=O)c2ccc(S(=O)(=O)N3CCN(CCC#N)CC3)cc2)CC1 | 1.62
8 | CCOc1ccc2nc(NC(=O)C(CC)CC)sc2c1 | 5.25
9 | Cc1nc(Cl)sc1C(=O)Nc1ccc(C(C)(C)C)cc1 | 2.64
10 | CN(Cc1cc2ccccc2nc1O)S(=O)(=O)c1ccccc1 | 1
11 | O=C(NC1CCc2ccccc21)c1nnc(O)c2ccccc12 (stereo not shown) | -1.07
12 | CCN(CC)c1ccc(C2NCC(c3ccc([N+](=O)[O-])cc3)O2)cc1 (stereo not shown) | -2.35
13 | CCOC(=O)N1CCN(C(=O)CN(c2cc(C)cc(C)c2)S(=O)(=O)c2ccc(C)cc2)CC1 | 0.408
14 | O=C1c2ccccc2-c2nc3cc(Cl)c(Cl)cc3nc21 | 11.8
15 | Cc1ccc(-c2noc(CSc3nc(C)cc(C)n3)n2)cc1 | -5.81
16 | Cc1ccccc1NC(=O)C(C)(C)NC(=O)c1cccc(N2C(=O)CSC2c2ccccc2)c1 (stereo not shown) | -1.36
17 | O=C(CSc1nc2cc(Cl)ccc2s1)NCc1ccccc1 | -6.84
18 | Cc1cc(C(=O)O)c(NC(=O)c2cccc(Cl)c2)s1 | 1.39
19 | O=C(COc1ccc(Br)cc1)NCCc1ccccc1 | -11.1
20 | Cc1cccc(C)c1NC(=O)C(C)Oc1ccccc1 (stereo not shown) | 2.24
21 | COCCO/C(O)=C1\C(C)=NC2=C(C(=O)CCC2)C1c1ccccc1Cl (stereo not shown) | 3.82
22 | CC[n+]1ccccc1/C=C1\C=Cc2cc(C)ccc2N1C | -3.19
23 | Nc1ccc(NS(=O)(=O)c2ccc(N)cc2)cc1 | 3.47
24 | C/C(Cl)=C\Cn1c(=O)c2c(nc(Br)n2Cc2ccccc2)n(C)c1=O | -4.33
25 | O=C(Nc1ccc2[nH]c3c(c2c1)CCCC3)c1ccc(F)cc1 | -3.41
26 | O=C(CN1N=C(c2ccccc2)CCC1=O)NCCN1CCOCC1 | 0.514
27 | Cc1ccn2c(=O)c(C(=O)NCc3ccc(Cl)cc3)cnc2c1 | 0.0579
28 | COc1ccc2cc3cc(C(=O)NCCN4CCc5ccccc5C4)sc3nc2c1 | 4.61

— publication PMC6919601, “Identification of Plasmodium dipeptidyl aminopeptidase allosteric inhibitors by high throughput screening” (PLoS ONE, 2019)
